This is one part of the list. The main result of the screen is listed elsewhere. These columns were measured beside it and carry no call. Compounds called inactive in the main read-out are mostly missing here.
Assay: up-regulation of insulin promoter-GFP reporter – imaging, high-content screening, mouse beta cells (AID 1625);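 further: total cells summed across four imaged fields per well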
Settings: MIN6 insulin promoter-GFP reporter, measured here: cytotoxicity, nuclei count, at 5 µM

SMILES | cell count [cells]
COc1ccc(-n2nc(C#N)c(Cl)cc2=O)cc1 | 447
N=c1oc2c3c4c(cc2cc1C(=O)Nc1ccccc1)CCCN4CCC3 | 968
COc1ccc(CCNc2cc(N3CCN(C(=O)c4ccccc4F)CC3)ccc2[N+](=O)[O-])cc1OC | 213
CCCCN(C)C1=CC2=CC(=C(C#N)C#N)CCC2CC1 (stereo not given) | 1160
Cc1ccc(NC(=O)c2ccc(Nc3c([N+](=O)[O-])cc([N+](=O)[O-])cc3[N+](=O)[O-])cc2)cc1 | 475
O=C(CN1C(=O)C2CC=CCC2C1=O)Nc1nnc(SCc2c(Cl)cccc2Cl)s1 (stereo not given) | 454
Oc1c(C(c2cccs2)N2CCN(c3ccccc3)CC2)ccc2cccnc12 (stereo not given) | 331
CC(=O)Oc1ccc2c(c1)Oc1cc(OC(C)=O)ccc1C21OC(=O)c2ccccc21 | 1390
O=[N+]([O-])c1ccc(C2=NN(c3ccccc3)C(c3ccco3)C2)cc1 (stereo not given) | 902
N#C/C(C(=O)c1ccccc1)=C1/SC=C(N)N1c1ccccc1 | 1160
Nc1c(C(=O)Nc2nccs2)sc2nc(-c3cccs3)cc(C(F)(F)F)c12 | 980
CCc1c(C)sc2nc(C(C)C)nc(SCC(=O)N3CCc4ccccc4C3)c12 | 358
O=C(Nc1cccc(Cl)c1)N1CCSc2cc(Cl)ccc21 | 454
Cc1c(C(=O)N2CCCCC2)oc2ccc(S(=O)(=O)N3CC(C)CC(C)C3)cc12 (stereo not given) | 287
O=C(Nc1cccnc1)C1(F)C(F)(F)C(F)(F)C(F)(F)C(F)(F)C1(F)F | 335
COc1ccc(-n2cc(-c3ccc(OC(F)F)cc3)[n+]3c2CCCCC3)cc1 | 419
Cc1ccc(Cl)cc1N1CCN(C(=O)CN(C2CCCCC2)S(C)(=O)=O)CC1 | 485
CN(C)S(=O)(=O)c1ccc(-c2csc(N/N=C/c3ccc(O)cc3)n2)cc1 | 480
CN(C)c1ccc(-c2nnn(CC(=O)N3c4ccccc4CCc4ccccc43)n2)cc1 | 491
C1=C(c2ccccc2)Nc2nnnn2C1 | 683
O=S(=O)(/C(=C/c1ccc(C(F)(F)F)cc1)c1nc2ccccc2[nH]1)c1ccccc1 | 495
Cn1c(=O)c(N)c2c3c(c(Br)ccc31)C(=O)c1ccccc1-2 | 1320
CCN(CC)c1ccc(C=C(c2nnnn2-c2ccccc2)c2nnnn2-c2ccccc2)cc1 | 1400
CCN1C(=O)CSc2ccc(C(=O)NCc3ccccc3OC)cc21 | 1470
O=C(N/N=C/c1cnc2ccccc2n1)c1cccc(F)c1 | 416
CCOC(=O)CN1C(=O)S/C(=C/c2ccc(N3CCCCC3)o2)C1=O | 1480
O=C(NCC1CCCO1)C1CCN(S(=O)(=O)N2CCCC2)CC1 (stereo not given) | 1580

SMILES | cell count [cells]
COC(=O)[C@@H](NC(=O)Nc1cccc(OC)c1)C(C)C | 1460
O=C(COC(=O)c1cc(S(=O)(=O)N2CCOCC2)ccc1O)NCC1CCCO1 (stereo not given) | 1220
O=Cc1sc(Nc2ccccc2)nc1Cl | 1280
COc1ccc(C(=O)c2sc3nc(-c4ccccc4)ccc3c2N)cc1OC | 1300
FC(F)(F)c1cccc(-c2nc3nc(Cl)c(Cl)nc3[nH]2)c1 | 490
COCCNC(=O)c1cc2c(=O)n3cccc(C)c3nc2n1C | 478
COC(=O)c1[nH]c(C)c(/C(O)=C2\C(=O)C(=O)N(CCN(C)C)C2c2ccccc2OC)c1C (stereo not given) | 306
O=C(N/N=C/c1c(O)ccc2ccccc12)c1[nH]ncc1Br | 471
O=C(N/N=C/c1sc(N2CCOCC2)nc1-c1ccccc1)c1cccc(S(=O)(=O)N2CCOCC2)c1 | 495
Cc1noc(C)c1COC(=O)c1cccc(S(=O)(=O)N2CCCCCC2)c1 | 470
CCn1cc([N+](=O)[O-])c(C(=O)Nc2ccn(Cc3ccccc3)n2)n1 | 401
Cc1ccc(NC(=O)/C=C/c2ccc([N+](=O)[O-])s2)cc1 | 654
CC(C)(C)C(=O)/C=c1\s/c(=C\c2ccc(-c3ccc([N+](=O)[O-])cc3)o2)c(=O)n1CC(=O)NC(N)=O | 1350
CCOc1ccc(NC2=NCC(=O)N2Cc2cccs2)cc1 | 1320
CCOc1cc(CNCc2ccncc2)cc(Br)c1OCc1ccccc1F | 244
CCn1c2ccccc2c2cc(NC(=O)c3cc(OC)c(OC)c(OC)c3)ccc21 | 376
COc1ccc(C(=O)/C=C/c2ccc(N(C)C)cc2)c(OC)c1 | 1030
Cc1ccccc1N1CCN(c2ncnc3scc(-c4cccs4)c23)CC1 | 451
OCCNc1nc(Nc2ccccc2)nc2ccccc12 | 449
COc1ccc2c(n1)Sc1nc3ccccc3nc1N2 | 1460
COc1cc(CN2CCc3ccccc3C2)ccc1O | 409
CC1CCN(C(=O)CNS(=O)(=O)c2ccc(Br)s2)CC1 | 864
COc1ccc2[nH]cc(CCN=C3SCC(=O)N3C)c2c1 | 435
COc1cc(C(=O)N2CCN(c3ncnc4sc(C)c(C)c34)CC2)cc(OC)c1OC | 215
CCOC(=O)CC1C(=O)NCCN1c1nc2ccc(C)cn2c(=O)c1/C=C1\SC(=S)N(C(C)CC)C1=O (stereo not given) | 1280
Cc1ccc(Nc2nc(Cl)c(C=O)s2)cc1Cl | 1510
O=C(c1ccccc1)c1c2c(cc3sc4ccccc4[n+]13)-c1cccc3cccc-2c13 | 180

SMILES | cell count [cells]
CCOC(=O)c1c(NC(=O)C2COc3ccccc3O2)sc(C(C)=O)c1C (stereo not given) | 494
COc1ccc(-n2nnnc2SCC#CCO)cc1 | 444
C=CCN(CC=C)CCOc1ccccc1 | 363
CCn1c(CNC(=O)COc2ccc(C(C)C)cc2)nnc1SCC(=O)Nc1ccccc1C(C)C | 499
CCOc1ccc(NC(=O)C2=C(C)C(=O)OC23CCC(C)CC3)cc1 (stereo not given) | 315
CN1CCN(Cc2nc(N)nc(Nc3ccc4c(c3)OCCO4)n2)CC1 | 1100
COc1ccc(N=C2NC(=O)S/C2=C\c2ccc(N(C)C)cc2)cc1 | 1330
Cc1ccc(C2(C(F)(F)F)N=C3Sc4cc(C)ccc4N3C(=O)N2)cc1 (stereo not given) | 1040
COCCNS(=O)(=O)c1ccc(SC)cc1 | 470
Cc1cc(N2CCN(C/C=C/c3ccccc3)CC2)n2ncnc2n1 | 190
O=C(C1=C(c2ccccc2)C(=O)c2ccccc2C1=O)c1ccccc1 | 253
CC1CC(C)(C)Nc2ccc(N=O)cc21 (stereo not given) | 742
Cc1cc(C(=O)CSc2nc3ccccc3c(=O)n2C)c(C)n1Cc1ccc2c(c1)OCO2 | 185
COc1ccc(/C=C/C(=O)c2ccc[nH]2)cc1OC | 371
O=c1c(Cl)c2oc3ccccc3nc-2c2ccccc12 | 1300
Cn1nc(-c2ccc(Cl)cc2)c2cc(C(=O)N3CCN(C(=O)c4ccco4)CC3)sc21 | 300
CN(C)CCCN1C(=O)c2cccc3c([N+](=O)[O-])ccc(c23)C1=O | 224
Cc1cc(C)nc(SCSc2nc(C)cc(C)n2)n1 | 861
CCN(CC)CCCNC1=C(Cl)C(=O)c2ccccc2C1=O | 320
NC[C@@H]1O[C@H](C23CC4CC(CC(C4)C2)C3)Cc2c1ccc(O)c2O | 363
CCN(CC)c1ccc(-c2nn3c(-c4ccccc4OC)nnc3s2)cc1 | 421
Cc1cc(C)cc(NC(=O)/C=C/c2ccc([N+](=O)[O-])s2)c1 | 1090
S=c1nc(-c2ccco2)[nH][nH]1 | 243
Clc1ccc2oc(-c3ccccn3)nc2c1 | 1080
Cc1ccc(-c2nn(-c3ccccc3)cc2/C=N/NC(=O)c2ccc(Br)o2)cc1 | 206
Nc1ccc2c(c1)C(=O)C(=O)c1ccccc1-2 | 216
C=CCn1c(=NC(=O)c2cc(-c3cccs3)nc3ccccc23)sc2cc(S(N)(=O)=O)ccc21 | 1150

SMILES | cell count [cells]
Cc1ccc(C(=O)COC(=O)C2C3C=CC(C3)C2C(=O)OCC(=O)c2ccc(C)c(C)c2)cc1C (stereo not given) | 413
NC1=NC[C@H](c2ccccc2)N1CCCCC1CCCCC1 | 351
COc1ccc(CNC(=O)c2cc3c(C)nc4ccccc4c3o2)c(OC)c1 | 491
O=C1C(Cl)=C(N2CCOCC2)C(=O)N1CCc1ccccc1 | 411
O=S(=O)(Nc1cc(Sc2cccc3cccnc23)c(O)c2ccccc12)c1ccc(F)cc1 | 142
CCOC(=O)c1c(NC(=O)C2c3ccccc3Oc3ccccc32)sc(C(=O)N(CC)CC)c1C | 483
COc1ccc(C(=O)/C=C/C(=O)N(CC(=O)NC2CCCCC2)Cc2ccc(F)cc2)c(O)c1 | 442
COC(=O)C1=NN[C@H](C(=O)OC(C)(C)C)[C@H]1c1ccccc1 | 490
Fc1ccc(C2CC(c3ccco3)=NN2c2ccccc2)cc1 (stereo not given) | 1260
Cc1ccc(CN=Cc2[nH]c3ccc(Br)c(Cl)c3c2O)cc1 | 786
CCOc1ccc(S(=O)(=O)Nc2cccc(N(C)S(C)(=O)=O)c2)cc1 | 464
CN(C(=O)COc1ccccc1C(=O)NCCOc1ccccc1)c1ccccc1 | 397
O=S(=O)(NCc1ccncc1)c1ccc(S(=O)(=O)NCC2CCCO2)cc1 (stereo not given) | 287
CN(NS(=O)(=O)c1ccc(Cl)cc1)c1ncc(C(F)(F)F)cc1Cl | 370
CN1/C(=C\C(=S)NC(=O)c2ccccc2Cl)C(C)(C)c2ccccc21 | 361
CCN1/C(=C/c2ccc3cc(C)ccc3[n+]2CC)Sc2cc(C)ccc21 | 248
COc1ccc(C(=O)c2c(C)oc3ccc(O)c(CN4CCOCC4)c23)cc1 | 447
CC(=O)c1cccc(NS(=O)(=O)c2ccc(N/C=C/C(=O)c3ccc(F)cc3)cc2)c1 | 499
CC1(C)Cc2c(c(-c3ccccc3)[nH]c(=O)c2C#N)CO1 | 1360
Oc1c(CN2CCN(c3ccccc3)CC2)cc(Br)c2cccnc12 | 350
CCCn1c(NC(=O)c2ccc(Cl)c(S(=O)(=O)N3CCCC3)c2)nc2ccccc21 | 396
O=C(Cn1ncc(Cl)c(Cl)c1=O)NCC1CCCCC1 | 269
CN(CC(=O)NCCc1ccccc1)S(=O)(=O)c1cccc2nsnc12 | 492
COc1ccc(-c2nn(-c3ccccc3)cc2/C=N/NC(=O)c2ccc(Br)o2)cc1 | 232

Source: PubChem BioAssay AID1625 (Sanford-Burnham Center for Chemical Genomics, 2009)
